Assay results as given in PubChem BioAssay AID2451 (National Center for Advancing Translational Sciences (NCATS), 2010).
Among all 290,000 compounds or so, about 2,100 (0.72%) were called active. Inconclusive results, whose numbers are uncertain, are shown with a selection of clear calls. Calls come from the whole dose curve; as a rule, active = well fitted inhibition curve with a large enough effect; inconclusive = small, poorly fitted or top-dose-only effect, or effect the other way; inactive = flat fitted curve, though single readings scatter. Where the call is inconclusive, the potency comes from a doubtful curve fit.

Each molecule was assayed against Fructose-bisphosphate aldolase (Giardia intestinalis (strain ATCC 50803 / WB clone C6)) (UniProt A8B2U2) (assay: qHTS Assay for Inhibitors of Fructose-1,6-bisphosphate Aldolase from Giardia Lamblia). Conditions: purified Giardia FBPA; activity, negative = inhibition: at 59.6 µM (top of the series) unless noted.
Method in brief: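 40 nM FBPA preincubated 10 min at RT with compound (up to 57.5 uM final), then substrate plus GAPDH/TPI/NAD/arsenate coupling and diaphorase/resazurin added. Fluorescence read after 20 min at RT, 525/598 nm.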
% is set by controls: 0 for no effect and ±100 for the full control effect; potency is the fitted concentration of half-maximal effect; tags give direction and shape of the fitted curve.
Note: nearly all actives have a fitted effect of over 55% in size.

Sequence of UniProt A8B2U2 (A8B2U2 whole entry, looked up): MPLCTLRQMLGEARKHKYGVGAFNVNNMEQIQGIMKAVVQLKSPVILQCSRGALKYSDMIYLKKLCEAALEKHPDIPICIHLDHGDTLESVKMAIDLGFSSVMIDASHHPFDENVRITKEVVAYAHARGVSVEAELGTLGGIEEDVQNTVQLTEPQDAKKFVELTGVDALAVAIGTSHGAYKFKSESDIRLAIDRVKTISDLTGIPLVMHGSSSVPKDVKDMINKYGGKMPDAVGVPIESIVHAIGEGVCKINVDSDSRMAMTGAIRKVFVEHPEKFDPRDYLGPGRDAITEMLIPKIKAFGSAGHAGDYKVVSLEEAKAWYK

SMILES	Potency	activity, negative = inhibition
C[C@]12CCC3C(CC[C@H]4C[C@H](O)CC[C@]34C)C1CC[C@@H]2C(=O)CO (stereo not given in full)	inactive	
C=CCn1c(=O)[nH]c2nc3cc(N=CN(C)C)c(C)cc3nc2c1=O	inconclusive: 11.2 µM [inhibitor, partial curve]	
Cc1ccc(C2=NC(=O)/C(=C/c3cc(O)c(O)c(Br)c3)S2)cc1	active: 15.8 µM	
C/C(=N/NC(=O)C(O)(c1ccccc1)c1ccccc1)c1ccc([N+](=O)[O-])o1	inactive	
CSc1ncc(-c2ccccc2)cn1	inactive	
O=C(CNc1ccc(F)cc1)c1ccccc1	inactive	
Cc1cc(C)c(S(=O)(=O)N/N=C/c2ccc([N+](=O)[O-])o2)c(C)c1	inconclusive: 14.1 µM [inhibitor, partial curve]	
Clc1cccc(CSc2nnc([C@@H]3CCCN3)o2)c1	inconclusive: 39.8 µM [inhibitor, single point]	
N#CC1=C(N)C2=CCCC[C@H]2[C@H](c2ccc(Br)cc2)C1(C#N)C#N	inconclusive: 11.2 µM [inhibitor, partial curve]	
Cn1nc(-c2ccccc2)cc1NS(=O)(=O)c1ccccc1	inconclusive: 14.1 µM [activator, partial curve]	
CCCN(CCC)C(=S)NC(=O)c1ccc(-c2ccccc2)cc1	inconclusive: 3.98 µM [activator, full curve]	
OC(CN1CC=C(/C=C/c2ccc(Br)cc2)CC1)c1ccccc1 (stereo not given)	inconclusive: 28.2 µM [inhibitor, single point]	
COCCCNC(=O)c1c(N)n(-c2ccccc2)c2nc3ccccc3nc12	inconclusive: 9.98 µM [inhibitor, partial curve]	
CC(C)CO/N=C1/C[C@@H](O)[C@@H](O)[C@@H]2[C@H]3C(=O)N(c4ccc(F)cc4F)C(=O)[C@@H]3CC[C@@H]12		inactive: -0.103% [at 12.9 µM]
C=CCc1c(C)nc(-c2ccccc2)nc1N/N=C/c1ccccc1	inactive	
O=C1/C(=C/c2ccc(O)c(O)c2)Oc2ccccc21	inconclusive: 17.7 µM [inhibitor, partial curve]	
CCN(C(=O)C(C)Cl)c1ccccc1 (stereo not given)	inactive	
Cn1c(O)c(N=NC(=O)CNC(=O)/C=C/c2ccccc2)c2ccccc21	inconclusive: 17.8 µM [inhibitor, partial curve]	
CC1CCCC(N2CCN(C(=O)c3ccccc3F)CC2)C1 (stereo not given)	inconclusive: 25.1 µM [inhibitor, single point]	
CCc1nnc(N/N=C/c2ccccc2Cl)n1N	active: 17.7 µM	
COC(c1ccccc1)c1c(-c2ccccc2)nn(C)c1Cl (stereo not given)		inconclusive: 46.9% [activator]
N#Cc1c(NCCCO)nc(-c2ccco2)c2c1CCCC2	inactive	
CCCC1C(=O)Nc2ccccc2N1C(=O)c1ccc(C(C)(C)C)cc1 (stereo not given)	inactive	
Cc1ccc(NC(=O)Cn2c(O)c(N=NC(N)=O)c3ccccc32)cc1	inactive	
O=C(Nc1ccccc1)c1nnsc1S(=O)c1ccc(Cl)cc1 (stereo not given)	inactive	

SMILES	Potency	activity, negative = inhibition
CCN(CC)CCCNc1oc(-c2ccccc2[N+](=O)[O-])nc1C#N	inconclusive: 15.8 µM [inhibitor, partial curve]	
Cn1cc(CCC(=O)N2CCCC(C(=O)c3cccc4ccccc34)C2)cn1 (stereo not given)	inactive	
COc1cc(S(=O)(=O)NCCCN2CCOCC2)ccc1-n1cnnn1	inconclusive: 22.3 µM [inhibitor, partial curve]	
O=C(NCC(c1ccco1)N1CCOCC1)c1cccc([N+](=O)[O-])c1 (stereo not given)	inactive	
COc1ccc(NC(=O)NCCCN2CCc3ccccc3C2)cc1	inconclusive: 17.7 µM [inhibitor, single point]	
CC1CCCC(C)N1CCNC(=O)CCn1nc(-c2ccccc2)ccc1=O (stereo not given)	inactive	
Oc1ccc(N=Cc2cc(Br)c(N3CCOCC3)o2)cc1	inconclusive: 1.99 µM [inhibitor, full curve]	
COc1ccc(/C=C/C(=O)NC(=S)N2C[C@H]3C[C@H](C2)c2cccc(=O)n2C3)cc1OC	active: 7.94 µM	
CN(C)C(CNc1nnnn1-c1ccccc1)c1ccco1 (stereo not given)	inactive	
OCCN(Cc1ccccc1)Cc1cccc(F)c1	inconclusive: 15.8 µM [inhibitor, partial curve]	
Oc1ccc(/C=N/N2CCCCC2)cc1O	inconclusive: 14.1 µM [inhibitor, partial curve]	
O=C(c1ccccc1)c1ccc2nc(-c3ccco3)c(-c3ccco3)nc2c1	inconclusive: 14.1 µM [inhibitor, partial curve]	
Cc1ccc2cccc(NC(=S)NC(=O)c3ccnn3C)c2n1	inconclusive: 15.8 µM [inhibitor, partial curve]	
COC(=O)N1CCC2(CC1)CN(C(=O)Nc1ccccc1)C2	inactive	
Cc1cnc(NC(=O)CC(C)c2ccccc2)s1 (stereo not given)	inactive	
CC1CCN(CCCCOc2ccc([N+](=O)[O-])cc2)CC1	inconclusive: 28.1 µM [inhibitor, single point]	
COc1ccccc1CNC(=O)C/C(C)=N/NC(=O)Cc1ccc(Cl)cc1		inconclusive: 30.1% [activator]
COc1cccc(NC(=O)C(Sc2nnc(-c3ccncc3)n2-c2ccc(Cl)cc2)c2ccccc2)c1 (stereo not given)	inactive	
Cc1ncoc1C(=O)Nc1ccc(Oc2ccccc2)cc1	inactive	
CN(C)/C=N/S(=O)(=O)c1cccn1-c1ncc(C(F)(F)F)cc1Cl	inactive	
CCn1cc(/C=N/NC(=O)c2ccc(C#N)cc2F)c2ccccc21	active: 15.8 µM	
CC(C)(C)OC(=O)[C@H]1[C@H](c2ccc([N+](=O)[O-])cc2)C2(C(=O)c3ccccc3C2=O)C2c3ccccc3C=NN21 (stereo not given in full)	inactive	
CCOc1cc(C(=O)NC(=S)Nc2nc(C)cc(C)n2)cc(OCC)c1OCC	inconclusive: 11.2 µM [inhibitor, partial curve]	
COc1ccc(CC(C)Nc2cccc(F)c2)cc1 (stereo not given)	inconclusive: 17.8 µM [inhibitor, partial curve]	
COc1cc(C2Nc3ccccc3C(=O)N2c2ccccc2)ccc1O (stereo not given)	inactive	
